# The campaign covered roughly 46,000 compounds. About 60 (0.1%) were called active. The inconclusive results got no clear call from the source; some entries with a clear call stand among them for comparison. Calls follow the shape of the dose curve; as a rule, active = well fitted inhibition curve with a large enough effect; inconclusive = small, poorly fitted or top-dose-only effect; inactive = no such curve, though single readings can be large or run the other way. Potencies of inconclusive entries are left out as doubtful fits.
# Test: Primary qHTS assay for Inhibitors of ovarian cancer metastasis using an organotypic tumor microenvironment (TME) model. Also: nearly all actives have a fitted effect of over 65% in size.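 As to Potency: count of GFP cancer cells still attached after washing and fixation.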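 As to activity change, negative = inhibition: plate controls were DMSO wells for no effect and tomatine positive control wells for full effect.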
# Conditions: SKOV3ip1-GFP adhesion/invasion on 3D omental model, fluorescence; activity change, negative = inhibition: at 45.8 µM (top of the series); series mostly up to 45.8 µM
# Procedure, shortened: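 Primary human omental fibroblast/mesothelial 3D culture pre-formed 48 h. SKOV3ip1-GFP cells added with compounds (0.36-46 umol/L), incubated 2 h RT/16 h 37 C, fixed; GFP cells quantified at 488/509 nm.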
# Potency is read from the fitted curve at half-maximal effect; tags tell the direction and shape of the fitted curve.
Structure (SMILES),Potency,"activity change, negative = inhibition",outcome
CCC12CN3CC(CC)(CN(C1)C3c1cc(Br)ccc1OC)C2=O (stereo not drawn),"inconclusive [inhibitor, single point]",,
Cn1nnnc1SCCCNCc1cccc(OCc2ccccc2Cl)c1,"inconclusive [inhibitor, single point]",,
Cc1nc2ccccc2n1CCc1nc2c3ccccc3nc(SCc3ccc(F)cc3)n2n1,"inconclusive [inhibitor, single point]",,
COc1ccccc1N1CCN(CC(O)COc2ccc(C)cc2C(C)(C)C)CC1 (stereo not drawn),"inconclusive [inhibitor, partial curve, poor fit]",,
Cc1ccc(C)c(N2CCN(CCCNC(=O)Nc3ccc(Cl)cc3)CC2)c1,"inconclusive [inhibitor, single point]",,
Cc1ccc(C(=O)Nc2ccc3nc(N4CCCCC4)cc(C)c3c2)cc1F,"inconclusive [inhibitor, single point]",,
CC(=O)N1c2ccc(S(=O)(=O)N3CCN(c4cccc(Cl)c4)CC3)cc2CC1C (stereo not drawn),,inactive: -4.44%,
Cc1ccc(C)c(N2CCN(CCCNC(=O)c3nnc(Cc4ccc(F)cc4Cl)o3)CC2)c1,"inconclusive [inhibitor, single point]",,
CCOc1ccc(Nc2c(S(=O)(=O)c3ccccc3)cnc3ccccc23)cc1,"inconclusive [inhibitor, full curve]",,
CCOc1ccc(S(=O)(=O)Nc2ccc(-c3ccc(OC)nn3)cc2)cc1,"inconclusive [inhibitor, single point]",,
Cc1ccccc1Nc1c(-c2ccncc2)nc2ccc(Cl)cn12,"inconclusive [inhibitor, partial curve, poor fit]",,
CCOC(=O)c1ccc(N2C(=O)c3n[nH]c(-c4cccs4)c3C2c2ccc(Cl)cc2Cl)cc1 (stereo not drawn),,,inactive
CCCCN(CC)CCCNC(=O)c1cn(CC)c2ccc(S(=O)(=O)N3CCOCC3)cc2c1=O,"inconclusive [inhibitor, single point]",,
CCOc1ccc(NC(=O)Cn2c(=O)oc3cc(S(=O)(=O)N4CCC(C)CC4)ccc32)cc1,,inactive: 0.94%,
O=C(NCC1CCN(Cc2ccc(F)cc2)CC1)c1cc2ccc3cccnc3c2[nH]1,"inconclusive [inhibitor, single point]",,
Cc1ccc(O)c(-c2n[nH]c3c2C(c2ccccc2F)N(Cc2ccco2)C3=O)c1 (stereo not drawn),active: 12.6 µM,,
O=C(O)[C@@H](c1ccc(OCc2ccc3ccccc3n2)cc1)C1CCCC1,,inactive: -2.09%,
Cc1ccc(Cn2c(C)c(CNCc3ccc(OC(C)C)cc3)c(C(=O)O)c2C)cc1,,inactive: 8.41%,
Cc1oc2ccc(O)c(CN3CCCC(C)C3)c2c1C(=O)Nc1ccccc1 (stereo not drawn),,inactive: 2.68%,
Cc1ccc2nc(-c3c[nH]c4ccccc34)c(Nc3ccc(F)cc3)n2c1,"inconclusive [inhibitor, single point]",,
Cc1ccc(OCC(=O)Nc2nc(-c3ccc(Br)cc3)ns2)cc1,"inconclusive [inhibitor, single point]",,

Structure (SMILES),Potency,"activity change, negative = inhibition",outcome
COc1ccccc1Nc1nn2c(=O)c3ccc(C(=O)NCCc4ccccc4)cc3nc2s1,"inconclusive [inhibitor, single point]",,
CCOc1ccc(NC(=O)c2ccc3c(=O)n4c(nc3c2)CCCCC4)cc1,,inactive: -16%,
Cn1c(SCc2ccc(F)cc2)nc2ccc(C(=O)NCc3cccc(Cl)c3)cc21,"inconclusive [inhibitor, full curve]",,
Cc1cc([C@@H](C)Nc2ccccc2C(=O)O)c2nc(N3CCOCC3)cc(=O)n2c1,,inactive: -13.5% [at 92.2 µM],
Cc1cccc(-n2ncc3c(NCCOCCO)ncnc32)c1,,inactive: -3.95%,
CC(Nc1oc(-c2ccc(COc3ccccc3)o2)nc1C#N)c1ccccc1 (stereo not drawn),"inconclusive [inhibitor, single point]",,
Cc1cccc(Nc2nc(-c3ccccc3)nc3ccccc23)c1,"inconclusive [inhibitor, single point]",,
COc1ccc(C(=O)NCc2cn3ccc(C)cc3n2)cc1,"inconclusive [inhibitor, single point]",,
Cc1ccc(NS(=O)(=O)c2ccc(-n3cccn3)cc2)c(Br)c1,,,inactive
CCOCCn1ccc2c(OCC(=O)Nc3cc(C)cc(C)c3)cccc2c1=O,,inactive: 0.523%,
Cc1ccc(NC(=O)N2CC=C(c3c[nH]c4ccccc34)CC2)cc1Cl,"inconclusive [inhibitor, single point]",,
O=C(CCCCCn1c(=O)c2sccc2n(CC(=O)Nc2ccccc2F)c1=O)NCc1ccc2c(c1)OCO2,"inconclusive [inhibitor, single point]",,
O=C(Cc1ccc(-c2ccccc2)cc1)NCCS(=O)(=O)N1CCN(c2ccccc2F)CC1,"inconclusive [inhibitor, single point]",,
CCCCOc1cccc(C2c3c(-c4cc(C)ccc4O)n[nH]c3C(=O)N2CCOC)c1 (stereo not drawn),"inconclusive [inhibitor, single point]",,
Cc1ccc(-n2ncc(C(=O)NCCN3CCC(Cc4ccccc4)CC3)c2C2CCN(C(=O)OC(C)(C)C)CC2)cc1,"inconclusive [inhibitor, partial curve, poor fit]",,
CCN1CCN(C(=O)Cn2ncc3c4ccccc4n(Cc4c(C)cc(C)cc4C)c3c2=O)CC1,"inconclusive [inhibitor, single point]",,
COc1ccc(C(=O)Nc2nc3c(s2)Cc2c(Br)ccc(OC)c2-3)cc1OC,,inactive: 0.955%,
COc1ccc2c(CNCCc3ccco3)c(C(=O)O)n(Cc3ccc(C)cc3)c2c1,,,inactive
Cc1nn(-c2ccccc2)c2nc(C3CC3)cc(C(=O)Nc3cccc(F)c3)c12,"inconclusive [inhibitor, single point]",,
COc1cccc(-c2cc(C(=O)Nc3cnn(Cc4ccc(Cl)cc4Cl)c3)no2)c1,"inconclusive [inhibitor, single point]",,
CC(C)(C)OC(=O)N1CCC(c2c(C(=O)N3CCN(c4cccc(Cl)c4)CC3)cnn2-c2cccc(Cl)c2)CC1,,inactive: 14.1%,

Structure (SMILES),Potency,"activity change, negative = inhibition",outcome
Cc1ccccc1S(=O)Cc1ccc(C(=O)NCc2ccccc2Cl)o1 (stereo not drawn),,,inactive
CCNc1nc2c(c(=O)n(C)c(=O)n2C)n1Cc1ccc(F)cc1,,inactive: -0.514%,
CC(C)(Cc1ccc2ccccc2c1)NC[C@@H](O)COc1cccc(Cl)c1C#N,"inconclusive [inhibitor, single point]",,
Cc1ccc(C(=O)Nc2c(C(=O)Nc3ccc(C)c(C)c3)sc3nc(C)cc(C)c23)cc1,"inconclusive [inhibitor, single point]",,
Cc1cc(Nc2ncnc3ccc(-c4ccc(CNCCS(C)(=O)=O)o4)cc23)ccc1Oc1ccn2ncnc2c1,,inactive: 12.7%,
CCOC(=O)c1c(C)[nH]c(C)c1S(=O)(=O)N1CCN(c2cc(Cl)ccc2C)CC1,"inconclusive [inhibitor, partial curve, poor fit]",,
O=C(c1cc(-c2ccc(Cl)cc2)n[nH]1)N1CCN(S(=O)(=O)c2ccc(Br)s2)CC1,"inconclusive [inhibitor, single point]",,
CCN(CC)CCCNC(=O)c1ccc2c(c1)sc1nc(-c3ccc(C)cc3)cn12,"inconclusive [inhibitor, full curve, poor fit]",,
Cc1ccc(C)c(N2CCN(C(=O)C3CCN(c4nc5ccc(C)cc5[nH]4)CC3)CC2)c1,"inconclusive [inhibitor, single point]",,
CCN(CC)CCCNC(=O)c1ccc(-c2nc(CN3CCc4ccccc43)c(C)o2)cc1,"inconclusive [inhibitor, single point]",,
CCN(C(=O)C1CCCN(S(=O)(=O)c2c(C)noc2/C=C/N(C)C)C1)c1cccc(C)c1 (stereo not drawn),"inconclusive [inhibitor, single point]",,
CCc1ccc(CNC(=O)c2ccc(-c3nc(CS(=O)(=O)c4ccccc4)c(C)o3)cc2)cc1,,inactive: -13.8%,
COc1ccc(CNC(=O)Cn2c(SCC(=O)Nc3ccc(C)c(C)c3)nc3ccccc32)cc1,"inconclusive [inhibitor, single point]",,
Cc1ccc(C(=O)Nc2c(C(=O)NCc3ccc(Cl)cc3)sc3nc(C)cc(C)c23)cc1,"inconclusive [inhibitor, single point]",,
Cc1ccc(-n2ncc(C(=O)NCCN3CCc4ccccc4C3)c2C2CCN(C(=O)OC(C)(C)C)CC2)cc1,"inconclusive [inhibitor, single point]",,
COc1cc(C2CC(=O)c3c([nH]c(C(=O)OC4CCCCC4)c3C)C2)cc(OC)c1OC (stereo not drawn),"inconclusive [inhibitor, single point]",,
COc1ccc(Cl)cc1NC(=O)CSc1nccn1Cc1ccco1,"inconclusive [inhibitor, single point]",,
Cc1ccc2[nH]cc(C(c3ccccc3)c3cccs3)c2c1 (stereo not drawn),"inconclusive [inhibitor, partial curve, poor fit]",,
CC(=O)c1cccc(NC(=O)c2cnn(-c3cccc(C)c3)c2-n2cccc2)c1,"inconclusive [inhibitor, single point]",,
CN(C)c1ccc(C(CNC(=O)COc2ccccc2)N2CCOCC2)cc1 (stereo not drawn),,inconclusive: -33.1% [inhibitor],
Cc1oc(-c2ccccc2Cl)nc1CS(=O)CC(=O)N1CCN(c2cccc(C(F)(F)F)c2)CC1 (stereo not drawn),"inconclusive [inhibitor, single point]",,

# Source: PubChem BioAssay AID1963576 (National Center for Advancing Translational Sciences (NCATS), 2024)
